Some of the results follow. Values come from read counts of a selection and are noisy.
target: T1, Drosophila AGO2 (FLAG-tagged, S2-R+ lysate) (UniProt Q9VUQ5); assay: AGO2 loading enrichment factor (IP read count / input read count, not library-size normalised) (ratio); higher = more efficient loading into AGO2; conditions: randomized region: 5' 5N of miR-317 loop
T1 sequence: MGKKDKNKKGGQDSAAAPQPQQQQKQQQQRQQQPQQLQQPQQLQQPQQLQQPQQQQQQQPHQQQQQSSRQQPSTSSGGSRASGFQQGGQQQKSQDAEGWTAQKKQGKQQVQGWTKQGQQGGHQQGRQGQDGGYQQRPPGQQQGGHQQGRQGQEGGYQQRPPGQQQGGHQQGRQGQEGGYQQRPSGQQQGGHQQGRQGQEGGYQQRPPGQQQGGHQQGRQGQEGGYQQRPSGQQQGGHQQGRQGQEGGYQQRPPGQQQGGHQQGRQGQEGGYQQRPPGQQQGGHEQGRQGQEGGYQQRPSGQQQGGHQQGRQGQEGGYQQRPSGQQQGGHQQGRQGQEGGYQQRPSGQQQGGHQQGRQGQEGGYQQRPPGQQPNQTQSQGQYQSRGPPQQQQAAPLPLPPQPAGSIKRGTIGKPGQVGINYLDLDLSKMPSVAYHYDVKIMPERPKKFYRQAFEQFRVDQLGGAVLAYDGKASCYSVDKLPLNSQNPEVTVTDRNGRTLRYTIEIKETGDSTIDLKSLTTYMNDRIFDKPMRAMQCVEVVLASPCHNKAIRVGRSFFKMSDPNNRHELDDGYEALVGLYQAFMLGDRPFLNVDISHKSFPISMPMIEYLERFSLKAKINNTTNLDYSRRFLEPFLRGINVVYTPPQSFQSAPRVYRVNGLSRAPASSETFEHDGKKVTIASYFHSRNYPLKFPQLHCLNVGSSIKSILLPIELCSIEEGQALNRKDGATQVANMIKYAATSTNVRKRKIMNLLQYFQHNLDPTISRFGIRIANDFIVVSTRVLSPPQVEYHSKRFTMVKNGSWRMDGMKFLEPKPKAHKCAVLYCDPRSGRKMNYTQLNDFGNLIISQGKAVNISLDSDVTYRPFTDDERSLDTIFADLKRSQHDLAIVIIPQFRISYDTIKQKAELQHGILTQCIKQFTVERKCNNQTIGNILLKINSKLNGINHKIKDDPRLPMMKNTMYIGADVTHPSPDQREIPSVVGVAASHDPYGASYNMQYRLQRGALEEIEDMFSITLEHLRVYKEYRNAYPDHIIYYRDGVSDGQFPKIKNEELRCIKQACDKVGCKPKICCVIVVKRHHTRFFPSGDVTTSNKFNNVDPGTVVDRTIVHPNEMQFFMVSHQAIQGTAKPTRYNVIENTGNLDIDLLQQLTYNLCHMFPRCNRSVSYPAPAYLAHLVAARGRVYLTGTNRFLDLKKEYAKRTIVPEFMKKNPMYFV
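Further: Per-sequence enrichment computed with FASTAptamer, counting only reads that carry the expected constant 3′ region.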

Sequence	AGO2 loading enrichment factor
ACGATTGAAATGCAAGCAAG	0.354
GTACGTGAAATGCAAGCAAG	0.359
ACTGGTGAAATGCAAGCAAG	0.411
GAATCTGAAATGCAAGCAAG	0.435
TCGGCTGAAATGCAAGCAAG	0.141
GCTCTTGAAATGCAAGCAAG	0.222
ATTATTGAAATGCAAGCAAG	0.424
CACGTTGAAATGCAAGCAAG	0.313
TGACCTGAAATGCAAGCAAG	0.315
TCTTTTGAAATGCAAGCAAG	0.436
GTCACTGAAATGCAAGCAAG	0.422
TCTAATGAAATGCAAGCAAG	0.53
ACCCATGAAATGCAAGCAAG	0.737
CTGGTTGAAATGCAAGCAAG	0.513
GTCAGTGAAATGCAAGCAAG	0.437
AGTCGTGAAATGCAAGCAAG	0.656
CCGCGTGAAATGCAAGCAAG	0.288
ACAGGTGAAATGCAAGCAAG	0.626
TCGATTGAAATGCAAGCAAG	0.399
TTGTCTGAAATGCAAGCAAG	0.212
ATCAATGAAATGCAAGCAAG	0.525
CCCGGTGAAATGCAAGCAAG	0.772
GGGGATGAAATGCAAGCAAG	8.14

Sequence	AGO2 loading enrichment factor
AAAAATGAAATGCAAGCAAG	0.437
TGTCTTGAAATGCAAGCAAG	0.0361
TGGTCTGAAATGCAAGCAAG	1.11
TTACCTGAAATGCAAGCAAG	0.416
CAGACTGAAATGCAAGCAAG	0.362
TCCCCTGAAATGCAAGCAAG	0.156
TTGAATGAAATGCAAGCAAG	0.515
ATCACTGAAATGCAAGCAAG	0.403
TGGGGTGAAATGCAAGCAAG	8.14
ATATTTGAAATGCAAGCAAG	0.553
AGACCTGAAATGCAAGCAAG	0.395
CCAGGTGAAATGCAAGCAAG	0.603
GGAAATGAAATGCAAGCAAG	0.655
GAAAGTGAAATGCAAGCAAG	0.411
GATGTTGAAATGCAAGCAAG	0.315
CCGAGTGAAATGCAAGCAAG	0.444
TAGGGTGAAATGCAAGCAAG	1.97
CATGCTGAAATGCAAGCAAG	0.0841
ACCTATGAAATGCAAGCAAG	0.359
ACATATGAAATGCAAGCAAG	0.387
ATAGCTGAAATGCAAGCAAG	0.17
ACGTGTGAAATGCAAGCAAG	0.342
ACGACTGAAATGCAAGCAAG	0.428

Sequence	AGO2 loading enrichment factor
ATCTTTGAAATGCAAGCAAG	0.359
TTGGTTGAAATGCAAGCAAG	0.346
GACGCTGAAATGCAAGCAAG	0.147
CATCCTGAAATGCAAGCAAG	0.257
CGGGATGAAATGCAAGCAAG	2.51
GTATATGAAATGCAAGCAAG	0.382
CAGGTTGAAATGCAAGCAAG	0.306
CCGGATGAAATGCAAGCAAG	0.993
GGAAGTGAAATGCAAGCAAG	2.16
GCGTCTGAAATGCAAGCAAG	0.319
CTATATGAAATGCAAGCAAG	0.442
CCCGTTGAAATGCAAGCAAG	0.256
GTTGGTGAAATGCAAGCAAG	0.857
TGCATTGAAATGCAAGCAAG	0.0972
GATATTGAAATGCAAGCAAG	0.378
GCTTCTGAAATGCAAGCAAG	0.0112
ATTAATGAAATGCAAGCAAG	0.479
TAGTATGAAATGCAAGCAAG	0.352
AAGACTGAAATGCAAGCAAG	0.346
TCGCATGAAATGCAAGCAAG	0.19
CCTGGTGAAATGCAAGCAAG	0.394
GAACCTGAAATGCAAGCAAG	0.479
TCGCCTGAAATGCAAGCAAG	0.399

Sequence	AGO2 loading enrichment factor
GCGCATGAAATGCAAGCAAG	0.126
GCTAATGAAATGCAAGCAAG	0.182
GCTTATGAAATGCAAGCAAG	0.0182
CTCTTTGAAATGCAAGCAAG	0.523
GTGCTTGAAATGCAAGCAAG	0.877
GCGAATGAAATGCAAGCAAG	0.325
TACTATGAAATGCAAGCAAG	0.362
CGCGTTGAAATGCAAGCAAG	0.361
ACCCTTGAAATGCAAGCAAG	0.143
CAAATTGAAATGCAAGCAAG	0.347
GGAGCTGAAATGCAAGCAAG	0.347
TCAGATGAAATGCAAGCAAG	0.483
AGCGCTGAAATGCAAGCAAG	0.114
ATAATTGAAATGCAAGCAAG	0.399
TACATTGAAATGCAAGCAAG	0.379
GCTCCTGAAATGCAAGCAAG	0.217
CCGTCTGAAATGCAAGCAAG	0.369
AGTAATGAAATGCAAGCAAG	0.401
AGCAGTGAAATGCAAGCAAG	0.146
GAGCTTGAAATGCAAGCAAG	0.158
TCGAGTGAAATGCAAGCAAG	0.436

From the supplement of paper PMC6451100
